From the RNAGym collection of RNA variant scans (doi:10.7554/elife.90254)
Read counts are not given, so values of variants with three or more changes are uncertain.

B1: LINE1-full (parent)
chain: UACGUAGGUGGUUUUCCCCUGAUAGUGCUAAGGGGGCCUGGAAGUUUGGACUGGGCAGAGCUCAACACAGCGUGGCAAAGUGGCUGUGGCUAGACUGCCUCUCUGGAUUCCUCGUCACUCAGCAGGGCAUCUCUGAGAGAAAUGCC

Variants of: B1
Test: self-cleavage, relative activity (ratio to wild type); higher = more cleavage; in vitro, sequencing; the parent is a self-cleaving ribozyme

Variant	self-cleavage
UACGUAGGUGGUUUUCCCCUGAUGGUGCUAAGGGGGCCCGGAAGUUUGGACUGGGCAGAGCUCAACACAGCGUGGCAAAGUGGCUGUGGCUAGACUGCCUCUCAGGAUUCCUCGUCACUCAGCAGGGCAUCUCAGAGAGAAAUGCC [A24G U39C U104A U134A]	1.34
UACGUAGGUGGUUUUCCCCUGAUGGCGCUAAGGGGGCCUGGAAGUUUGGACUGGGCAGGGCUCAACACAGCGUGGCUAAGUGGCUGUGGCUAGACUGCCUCUCUGGAUUCCUCGUCACUCAGCAGGGCAUCUCUGAGAGAAAUGCC [A24G U26C A59G A77U]	0
UACGUAGGUGGUUUUCCCCUGAUGGUGCUAAGGGGGCCUGGAAGUUUGGACUGGGCAGAGCUCAACACAGCGUGGCAAAGAGGCUGUGGCUAGACUGCCCCUCUGGAUUCCUCGACACUCAGCAGGGCAUCUCUGAGAGAAAUGCC [A24G U81A U100C U115A]	2.97
UACGUAGGUGGUUUUCCCCUGAUGGUGCUAAGGGGGCCUGGAAGUUUGGACUGGGCAGAGCUCAACACAGCGUGGCAAAGUGGCCGUGGCUAGACUGCCUCUCUGGAUUCCUCGUCACUCAGCAAGGCACCUCUGAGAGAAAUGCC [A24G U85C G125A U130C]	0.56
UACGUAGGUGGUUUUCCCCUGAUGGUGCUAAGGGGGCCUGGAAGUUUGGACUGGGCAGAGAUCAACACAGCGUGGCAAAGUGGCCGUGGCUAGACUGCCUCUCUGGAUUCCUCGUCACUCAGCAGGGCAUCUCUGAGAGAAAUGCC [A24G C61A U85C]	0.09
UACGUAGGUGGUUUUCCCCUGAUGGUGCUAAGGGGGCCUGGAAGUUUGGACUGGGCAGAGCUCAACACAGCGUGGCAAAGUGGCUGUGGCUAGACUGCCUCUCUGGAUUCCUCGUCACUCAGCAGGGCUUCUCUGAGAGAGAUGCC [A24G A129U A141G]	1.8
UACGUAGGUGGUUUUCCCCUGAUGGUGCCAAAGGGGCCUGGAAGUUUGGACUGGGCAGAGCUCAACACAGCGUGGCAAAGUGGCUGUGGCUAGACUGCCUCUCUGGAUUCCUCGUCACUCAGCAGGGCAUCUCUGAGAGAAACGCC [A24G U29C G32A U143C]	0.58
UACGUAGGUGGUUUUCCCCUGAUGGUGCUAAGGGGGCCUGGAAGUUUGGACUGGGCAGAGCUCAACACAGCGUGGCAAAGUGGCUGUGGCUAGACUGCCUCUCUGGGUUCCUCGUCAUUCAGCAGGGCAUCUCUGAGAGAAAUGCC [A24G A107G C118U]	0.87
UACGUAGGUGGUUUUCCCCUGAUGGUGCAAAAGGGGCCUGGAAGUUUGGACUGGGCAGAGCUCAACACAGCGUGGCAAAGUGGCCGUGGCUAGACUGCCUCUCUGGAUUCCUCGUCACUCAGCAGGGCAUCUCUGAGAGAAAUGCC [A24G U29A G32A U85C]	0.28
UACGUAGGUGGUUUUCCCCUGAUGGUGCUAAGGGGGCCUGGAAGUUUGGACCGGGCAGAGCUCAACACAGCGUGGCAAAGUGGCUGUGGCCAGACUGCCUCUCUGGAUUCCUCGUCACUCAGCAGGGCAUCUCUGAGAGAAAUGCC [A24G U52C U91C]	0.46
UACGUAGGUGGUUUUCCCCUGAUGGUGCUAAAGGGGCCUGGAAGUUUGGACUGGGCAGAGCUCAACACAGCGCGGCAAAGAGGCUGUGGCUAGACUGCCUCUCUGGAUUCCUCGUCACUCAGCAGGGCAUCUCUGAGAGAAAUGCC [A24G G32A U73C U81A]	1.45
UACGUAGGUGGUUUUCCCCUGAUGGUGCUAAGGGGGCCUGGAAGUUCGGACUGGGCAGAGCUCAACACGGCGUGGCAAAGUGGCUGUGGCUAGACUGCCUCUCUGGAUUCUUCGUCACUCAGCAGGGCAUCUCUGAGAGAAAUGCC [A24G U47C A69G C111U]	1.27
UACGUAGGUGGUUUUCCCCUGAUGGAGCUAAGGGGGCCUGGAGGUUUGGACUGGGCAGAGCUCAACACAGCGUGGCAAAGUGGCUGUGGCUAGACUGCCUCUCUGGAUUCCUCGUCACUCAGCAGGGCGUCUCUGAGAGAAAUGCC [A24G U26A A43G A129G]	0.88
UACGUAGGUGGUUUUCCCCUGAUGGUGCUAAGGGGGCCAGGGAGUUUGGACUGGGCAGAGCUCAACACAGCGUGGCAAAGUGGCUGUGGCUAGACUGCCUCUCUGGAUUCCUCGUCACUCAGCAGGGCAUCUCUGAGAGAAAUGCC [A24G U39A A42G]	1.18
UACGUAGGUGGUUUUCCCCUGAUGGUGCCAAGGGGGCCUGGAAGUUUGGACUGGGCAGAGCUCAACACAGCGUGGCAAAGUGGCUGAGGCUAGACUGCCUCUCUGGAUUCCUCGUCACUCAGCAGGGCAUCUCUGAGGGAAAUGCC [A24G U29C U87A A138G]	0.12
UACGUAGGUGGUUUUCCCCUGAUGGUGCUAAGGGGGCCUGGAAGUUUGGAAUGGGCAGAGCUCAACACAGCGUGGCAAAGUGGCUGAGGCUAGACUGCCUCUCUGGAUUCCUCGUCACUCAGCAGGGCAUCUCUGAGAGAAAUGUC [A24G C51A U87A C145U]	0.19
UACGUAGGUGGUUUUCCCCUGAUGGUGCUAAGGGGGCCUGGAAGUUUGGACUGGGCAGAGCUCAACACAGCGUGGCAAAGUGGCUGUGGCUAGGCUGCCUCUCUGGAUUCCUCGUCACUCAACAGGGCAUCUCUGAGAGAAAUGCC [A24G A94G G122A]	0.33
UACGUAGGUGGUUUUCCCCUGAUGGUGCUAAGGGGGCCAGGAAGUUUGGACUGGGCAGAGCUCAACACAGCGGGGCAAAGUGGCUGUGGCUAGACUGCCUCUCUGGAUUCCUCGCCACUCAGCAGGGUAUCUCGGAGAGAAAUGCC [A24G U39A U73G U115C C128U U134G]	1.6
UACGUAGGUGGUUUUCCCCUGAUGGUGCUAAGGGGGCUUGGAAGUUAGGACUGGGCAGAGCUCAACACGGCGUGGCAAAGUGGCUGUGGCUAGACUGCCUCUCUGGAUUCCUCGUCACUCAGCAGGGCAUCUCUGAGAGAAAUGCC [A24G C38U U47A A69G]	0.74
UACGUAGGUGGUUUUCCCCUGAUGAUGCUAAGGGGGCCUGGAAGUUUGGACUGGGCAGAGCUCAACACAGCUUGGCAAAGUGGCUGUGGCUAGACUGCCUCUCUGGAUUCCUCGUCACUCAGCAGGGCAUCUCUGAGAGAAAUGCC [A24G G25A G72U]	1.33

Variant	self-cleavage
UACGUAGGUGGUUUUCCCCUGAUGGUGCUAAGGGGGCCUGGAAGUUUGGACUGGGCAGAGCUCAACACAGCGUGGCAAAGUGGCUGUGGCUAGACUGCCUCUCUGGGUUCCUCGUCACUCAGCAGGGCAUCUCUGAGAGAAAUACC [A24G A107G G144A]	2.14
UACGUAGGUGGUUUUCCCCUGAUGGUGCUAAGGGGGCCUGGAAGUUUGGACUGGGCAGAGCUCAACACAGCGCGGCAAAGUGGCUGCGGCUAGACUGCCUCUCUGGAUUCCUCGUCACUCAGCAGGGCAUCUCUGUGAGAAAUGCC [A24G U73C U87C A136U]	0
UACGUAGGUGGUUUUCCCCUGAUGGUGCAAAGGGGGCCUGGAAGUUUGGACUGGGCAGAGCUCAACACAGCGUGGCAAAGUGGCUGUGGCUAGACUGCCCCUCUGGAUUCCUCGUCACUCGGCAGGGCAUCUCUGAGAGAGAUGCC [A24G U29A U100C A121G A141G]	1.31
UACGUAGGUGGUUUUCCCCUGAUGGUGCUAAGGGGGCCUGGAAGCUUGGACUGGGCAGAGCUCAACACAGCGUGGCAAAGUGGCUGUGGCUAGACUGCCUCUCUGGAUUCCUCGUCACUCAGCAGGGCAUCUCUGAGGGAAAUGCC [A24G U45C A138G]	0.84
UACGUAGGUGGUUUUCCCCUGAUGGUGCUAAGGGGGACUGGAAGUUCGGACUGGGCAGAGCUCAACACAGCGUGGCAAAGUGGCUGUGGCUAGACUGCCUCUCUGGAUUCCUCGUCACUCAGCAGGGCAUCUCUGAGAGAAAUGCC [A24G C37A U47C]	1.31
UACGUAGGUGGUUUUCCCCUGAUGGUGCUAAGGGGGCCUGGAAGUUUGGACUGGGCAGAGCUAAACGCAGCGUGGCAAAGUGGCUGUGGCUAGACUGCCUCUCUGGAUACCUCGUCACUCAGCAGGGCAUCUCUGAGAGAAAUGCC [A24G C63A A67G U109A]	0.08
UACGUAGGUGGUUUUCCCCUGAUGGUGCUAAGGGGGCCUGGAAGUUUGGACUGGGCAGAGCUCAACACAGCGUGGCAAGGUGGCCGUGGCUAGACUGCCUCUCUGGAUUCCUCGUCACUCAGCAGGGCAUCUCUGAGAGAAAUGCC [A24G A79G U85C]	0.3
UACGUAGGUGGUUUUCCCCUGAUGGUGCUAAGGGGGCCUGGAAGUUUGGACUGGGCAGAGCUCAACACAGCGUGGCAAAGUGGCUGUGGCUAGACCGCCUCUCUGGAUUCCUCGUCACUCAGCAGGGCUUCUCUGAGAGAAAUGCC [A24G U96C A129U]	0.22
UACGUAGGUGGUUUUCCCCUGAUGGUGCUAAGGGGGCCUGGAAGUUUGGACUGGGCAGAGCUCAACACAGCGUGGCAAAGUGGCUGUGGCUAGUCUGCCUCUCUGGAUUCCUCGUCACUCAGCAGGGCAUCUCUGAGAGAAGUGCC [A24G A94U A142G]	0.37
UACGUAGGUGGUUUUCCCCUGAUGGUGCUAAGGGGGCCAGGAAGUUUGGACUGGGCAGAGCUCAACACAGCGUGGCAAAGUGGCUGUGGCUAGACUGCCUCUCUGGAUUCCUCGUCACUCAGCAGGGCAUCUCUGAGAGAAGUGCC [A24G U39A A142G]	0.46
UACGUAGGUGGUUUUCCCCUGAUGGUGCUAAGGGGGCCUGGAAGUUUAGACUGGGCAGGGCUCAACACAGGGUGGCAAAGUGGCUGUGGCUAGACUGCCUCUCUGGAUUCCUCGUCACUCAGCAGGGCAUCUCUGAGAGAAAUGCC [A24G G48A A59G C71G]	0.06
UACGUAGGUGGUUUUCCCCUGAUGGUGCUAAGGGGGCCUGGAAGCUUGGACUGGGCAGAGCUCAACACAGCGUGUCAAAGUGGCUGUGGCUAGACUGCCUCUCUGGAUUCCUCGUCACUCAGCAGGGCAUCUCUGAGAGAAAUGCC [A24G U45C G75U]	0.99
UACGUAGGUGGUUUUCCCCUGAUGGUGCUAAGGGGGCCUGGAAGCUUGGACUGGGCAUAGCUCAACACUGCUUGGCAAAGUGGCUGUGGCUAGACUGCCUCUCUGGAUUCCACGUCACUCAGCAGGGCAUCUCUGAGAGAAAUGCC [A24G U45C G58U A69U G72U U112A]	0.02
UACGUAGGUGGUUUUCCCCUGAUGGUGCUAAGGGGGCCUGGAAGUCUGGACUGGGCAGAGCUCAACACAGCGUGGCAAAGUGGCUGUGGCUAGACUGCCUCUCUGGAUUCCUCGCCACUCAGCAGGGCAUCUCUGAGAGAAAUGCC [A24G U46C U115C]	2.24
UACGUAGGUGGUUUUCCCCUGAUGGUGCUAAGGGGGCCUGGAAGUUAGGACUGGGCAGAGCUCAACACAGCGUGGUAAAGUGGCUGUGGCUAGACUGCCUCUCUGGAUUCCUCGUCACUCAGCAGGGCAUCUCUGAGAGGAAUGCC [A24G U47A C76U A140G]	1.77
UACGUAGGUGGUUUUCCCCUGAUGGUGCUAAGGGGGCCUGGAAGUUUGGACUGGGCAGAGCUCAACACAGCGUGGCAAAGUGGCUGUGGCUAGACUGCCACUCUUGAUUCCUCGUCACUCGGCAGGGCAUCUCUGAGAGAAAUGCC [A24G U100A G105U A121G]	1.75
UACGUAGGUGGUUUUCCCCUGAUGGUGCUAAGGGGGCCUGGAAGUUUGGACUGGGCAGAGCUCAACACAGCGUGGCAAUGUGGCUGUGGCUAGACUGCCUCUCUGGAUUCCUCGUCACCCGGCAGGGCAUCUCUGAGAGAAAUGCC [A24G A79U U119C A121G]	0.77
UACGUAGGUGGUUUUCCCCUGAUGGUGCUAAGGGGGCCUGGAAGUUUGGACUGGGCAGAGCUCAAUACAGCGUGGCAAAGUGGCUGUGGCUAGACUGCCCCUCUGGAUUCCUCGCCACUCAGCAGGGCAUCUCUGAGAGAAAUGCC [A24G C66U U100C U115C]	0.19
UACGUAGGUGGUUUUCCCCUGAUGGUGCUAAGGGGGCCUGGAAGUUAGGACUGGGCAGAGCUCAACACAGCGUGGCAAAGUGGCUGUGGCUAGACUGCCUCUCUGGAUUCCUCGUCACUCAGCAGGGCAUCUCUGAGAGAGAUGCC [A24G U47A A141G]	0
